Among the data in article PMC10668032 are binding signal values, retold here.

Some of the results follow. At the low end of the ranking the order means little.

This assay deals with SIX1-Q177R homeodomain (UniProt Q15475). The assay can be described thus: universal protein binding microarray. The settings on record: Universal all-10-mer PBM (8x60K, AMADID 030236), 300 nM GST-tagged protein, Alexa Fluor 488 anti-GST; buffer, salt, pH and temperature not stated; high values mean tight binding; most listed sequences are background and not binding sites; double strand, one strand shown.
For the sequence GCCACGTA, the binding signal was -0.282 E-score. The value for GTCTCCAC was -0.225 E-score; that for TATCCTGA was 0.0194 E-score.

In the case of GCTAAAAC, the binding signal was 0.0107 E-score.

On to ATGATCGA, for which the binding signal was -0.099 E-score.

AAAGTGGG: the binding signal was determined as 0.055 E-score.

On to ATTCAAAT, for which the binding signal is -0.272 E-score. The figure for CCTGGTTA is -0.15 E-score. The figure for CTAACCCA is -0.0268 E-score. GGAGAAAA: the binding signal was -0.209 E-score. The figure for ATTTAGCC is -0.0392 E-score; for AGAGGACG it is 0.00352 E-score; for AAGCACAC it is 0.276 E-score. The value for GACCCTGA was -0.0564 E-score. For ACATACCC, the binding signal was 0.17 E-score. The value for GGGGCAAC was -0.137 E-score; that for ATTACATC was -0.0692 E-score; that for CTCCGCTC was -0.0603 E-score. Regarding ACAATCGG, the binding signal turned out to be 0.0827 E-score. The figure for ATAGTCTA is -0.246 E-score. For ATGGATGA, the binding signal turned out to be 0.0307 E-score.

In the case of TGTCGCAA, the binding signal amounted to 0.141 E-score. The figure for CTCCGCGA is -0.0428 E-score; for TAGAAACA it is -0.101 E-score.

Consider AACGGGGT, for which the binding signal is 0.205 E-score. The value for CGGCGGGA was 0.0209 E-score; that for CGGCCCAA was -0.0546 E-score. For GAGCACAC, the binding signal was 0.262 E-score. The figure for AGTTATAT is -0.0876 E-score. On to ATGGGCAC, for which the binding signal was found to be 0.05 E-score. The value for CGTTCAGA was -0.143 E-score.

CGTAGAAC: the binding signal worked out at 0.0685 E-score. The value for CACAACCG was 0.0968 E-score; that for CAAAAGCA was -0.0783 E-score. The figure for CCATAGAA is 0.0571 E-score; for GACAAACA it is 0.0953 E-score; for CTCCGACA it is 0.175 E-score. The figure for CGACAATA is -0.191 E-score; for GGGCCGAA it is -0.198 E-score. Consider CGTGCACG, for which the binding signal was found to be 0.17 E-score. The value for CACGACTC was 0.304 E-score; that for ACTTTCCT was -0.302 E-score. The value for GGGACCCC was 0.211 E-score. The value for CTCGTCAA was -0.0958 E-score; that for CCGACCGA was -0.154 E-score; that for ATACTGTC was -0.0234 E-score. With ATCCCACC, the binding signal was determined as 0.133 E-score.

With ATCGGATG, the binding signal is -0.0387 E-score. With TCGGAACA, the binding signal is 0.121 E-score. The value for AATAAACT was -0.164 E-score; that for AGCGTGTG was 0.281 E-score. The figure for ACGCGCCC is 0.0735 E-score; for ATGCCTCG it is -0.226 E-score; for ACAATTCG it is -0.0744 E-score.

For ACAATGAA, the binding signal is -0.191 E-score.

In the case of CTTTCCGC, the binding signal is -0.138 E-score. The value for GTAACGGA was -0.0519 E-score. With GGGTCCAA, the binding signal is 0.218 E-score. The value for CAATCAGA was -0.114 E-score.

Turning to AGGACGGC, the binding signal was -0.21 E-score.

For ACGTAATG, the binding signal is -0.0582 E-score. As for AAACGGAG, the binding signal was -0.206 E-score.

Take CCGGGATA: the binding signal was determined as 0.0159 E-score. Take GCGACAGC: the binding signal was -0.267 E-score. The figure for CAGATAGA is -0.114 E-score; for AAAAAGCT it is -0.247 E-score; for CTTGTTTC it is 0.0226 E-score. The value for AAGTGGCG was -0.125 E-score; that for AGAGGTCC was -0.106 E-score. The value for ACCGCGAA was 0.161 E-score; that for ATTCATAC was -0.00919 E-score. Take ATTGTTGC: the binding signal was -0.0309 E-score.

Consider ATCGTTAC, for which the binding signal is -0.0388 E-score. The value for AACCTTGG was 0.0102 E-score; that for CTCCAGCA was 0.0219 E-score; that for CATCAATC was -0.123 E-score.

As for ATATGCCC, the binding signal is -0.0104 E-score. Consider GGCGTTGA, for which the binding signal was -0.0156 E-score. The value for CGGGAACC was -0.055 E-score; that for AGCAAGAC was -0.0797 E-score; that for GCGCAAAC was -0.142 E-score.

GGGGAGCA: the binding signal was -0.121 E-score. The value for ACTGGCAG was -0.0896 E-score; that for GCAGCGTA was -0.167 E-score; that for ATACTATA was 0.0849 E-score.

Regarding AAAAGGAG, the binding signal was -0.186 E-score.

As for GGTCTGAA, the binding signal was -0.146 E-score. The figure for AGCCCGAG is -0.108 E-score; for AGTACTAC it is -0.0546 E-score.

In the case of CAGCAATA, the binding signal was -0.151 E-score.

Take ACGGAGGA: the binding signal was 0.102 E-score. The figure for AAAAGGGT is -0.0479 E-score; for AAGTTGCG it is -0.0682 E-score. The figure for GGACCAAA is -0.142 E-score; for AGCTGTCA it is -0.23 E-score. The value for ACATAACT was 0.11 E-score; that for GGCTCGCA was -0.0523 E-score. GCTACACC: the binding signal was determined as 0.473 E-score. The figure for ACCAGAAT is 0.161 E-score. Regarding CGCGAGTA, the binding signal stood at 0.127 E-score.

ATGATCAC: the binding signal was -0.0125 E-score. The figure for ACACTGTC is 0.336 E-score; for CGTCGAGC it is -0.0139 E-score. The figure for AGTAGCAA is -0.137 E-score; for TCTAAACA it is -0.00135 E-score; for ACAGATGA it is -0.167 E-score. The figure for CGTATCAA is -0.0127 E-score; for GTCTCAAA it is -0.0229 E-score; for CGTTTCTC it is 0.0938 E-score.

Turning to AATGGGAT, the binding signal stood at 0.053 E-score. As to CAGAGGAG, the binding signal is -0.107 E-score. The figure for AGCATGGG is 0.0289 E-score; for CAAATATA it is -0.0486 E-score; for ATCCTTCG it is -0.0216 E-score.

Turning to GGTATGGA, the binding signal was -0.0445 E-score. The value for AAACTAAG was -0.0712 E-score; that for GTGGCATA was 0.107 E-score.

As for CAGGAGAG, the binding signal was -0.0614 E-score. The figure for TCGCCCCA is -0.128 E-score; for ACCTACGT it is -0.0587 E-score. The figure for AAGCCCAC is -0.101 E-score.

Turning to CGCTAGAC, the binding signal was -0.00679 E-score. The figure for AACATATT is -0.263 E-score; for CCATCCAC it is 0.0874 E-score; for AAGGCTAG it is -0.119 E-score. The value for GGATTTAC was 0.0105 E-score. With ACCACCAC, the binding signal came out at 0.116 E-score. The value for CAATCCCC was -0.0225 E-score; that for TGCACCAA was 0.211 E-score. The value for CCATGCAC was 0.123 E-score. The value for CAAGTATA was -0.2 E-score; that for CTGTGTAC was 0.229 E-score; that for ATGCTTCG was -0.165 E-score. As for ATGACTAC, the binding signal was -0.0391 E-score.

Consider CCAGCCGC, for which the binding signal was -0.0454 E-score. The figure for GCCGTAAC is -0.115 E-score; for AACAGTTA it is -0.114 E-score; for AGCAGCAG it is -0.072 E-score.

For the sequence ATCTTCAC, the binding signal came to 0.0244 E-score. The figure for AGGCTACC is 0.187 E-score; for ACAGTAAA it is -0.0328 E-score. The figure for ACTAGTAA is -0.0852 E-score; for CACTTTCA it is 0.117 E-score; for ACTTCAAA it is -0.2 E-score. For the sequence AGCACCCT, the binding signal worked out at 0.172 E-score.

Regarding AACGAGGT, the binding signal amounted to 0.0368 E-score. The figure for TAAAGAAA is -0.122 E-score. The value for GCGTGAGC was -0.061 E-score; that for CTCATGTA was -0.0107 E-score; that for AGATTTTA was -0.0747 E-score. The value for ATCATCCG was 0.0213 E-score; that for CGCCGAAC was -0.0241 E-score; that for CGCGCGCG was 0.00566 E-score.

Regarding CGAAACTA, the binding signal was -0.111 E-score. The value for CAATTCCC was -0.1 E-score.

For the sequence GAACACGA, the binding signal amounted to 0.339 E-score.

Regarding GGAGGCAC, the binding signal was -0.0253 E-score. The figure for ATTAGTGG is 0.0379 E-score; for CTGACTCA it is -0.0178 E-score. The value for AAGACTGA was -0.0974 E-score; that for TCAGATGA was 0.111 E-score. The figure for ACCCATTC is 0.0322 E-score. Turning to GTAAAAAA, the binding signal was -0.193 E-score. The value for CCTCCAAG was -0.0906 E-score; that for GCGCAGAA was -0.126 E-score; that for CCACCCTA was 0.174 E-score. The value for ACCAGGAG was 0.0753 E-score; that for AGCCGGGC was -0.123 E-score.

On to AAGATGGT, for which the binding signal was -0.0731 E-score. The value for ATAGCAGA was -0.0966 E-score. The value for AGATTAAG was -0.137 E-score; that for ATGCCCGC was -0.0116 E-score.
